Laboratory results as given in PubChem BioAssay AID1963576 (National Center for Advancing Translational Sciences (NCATS), 2024).
About 60 (0.1%) of roughly 46,000 compounds were called active. Not shown: some 3% with an inconclusive outcome. Calls follow the shape of the dose curve; as a rule, active = well fitted inhibition curve with a large enough effect; inconclusive = small, poorly fitted or top-dose-only effect; inactive = no such curve, though single readings can be large or run the other way. The list shows a part of the results.

Experiment: Primary qHTS assay for Inhibitors of ovarian cancer metastasis using an organotypic tumor microenvironment (TME) model. Also: nearly all actives have a fitted effect of over 65% in size.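 As to activity change, negative = inhibition: plate controls were DMSO wells for no effect and tomatine positive control wells for full effect.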
Settings: SKOV3ip1-GFP adhesion/invasion on 3D omental model, fluorescence; series mostly up to 45.8 µM; activity change, negative = inhibition: at the top concentration
How it was run: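 qHTS, 4-pt dose (0.36-46 umol/L); SKOV3ip1-GFP, 1,200 cells/well, no FBS; primary omental fibroblast/mesothelial co-culture 48 h pre-grown; 2 h RT + 16 h 37 C; PBS wash, 4% PFA; GFP count 488/509 nm.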

Activity change, negative = inhibition, inactive:
O=C(NC1CCCCC1)c1ccc(Cn2c(SCc3ccccc3F)nc3cccnc32)cc1 -9.88%
O=C(Cn1cc(C(=O)c2ccco2)c2ccccc21)Nc1ccc(Br)cc1 1.1%
CC1CCN(S(=O)(=O)c2cn(CC(=O)Nc3cccc(C(F)(F)F)c3)c(=O)c3ccccc23)CC1 -3.69%
O=C(CSc1ccccc1)N1CCc2c([nH]c3ccccc23)C1c1ccc(F)cc1 (stereo unspecified) 1.48%
CCOC(=O)c1cnn(-c2ccc(C(=O)Nc3cc(OC)c(OC)c(OC)c3)cc2)c1N -0.082%
COc1cccc(CSc2nc3ccccc3c3nc(CCn4c(C)nc5ccccc54)nn23)c1 -4.28%
CCCn1c2ccccc2c2cnn(CC(=O)N(C)c3ccc(F)cc3)c(=O)c21 0.254%
COc1cccc(NC(=O)c2ccc3nc(CCc4ccccc4)oc3c2)c1 9.64%
CCCCNc1nc(Oc2ccc(OCC)nn2)nc(N2CCOCC2)n1 4.46%
COc1ccc(Cl)cc1NC(=O)c1c(NCc2ccc(C)o2)sc2c1CCCCC2 -8.69%
CSc1ncc(Cl)c(C(=O)Nc2ccc(NC(C)=O)cc2)n1 1.88%
CCC1CCCCN1C(=O)Cn1c(=O)n(CCCCCC(=O)NCc2ccccc2)c(=O)c2sccc21 (stereo unspecified) -1.59%
COc1ccccc1CNC(=O)CCC(=O)N1CC2CCCN2c2ccccc21 (stereo unspecified) -0.39%
O=C(NCc1ccc2c(c1)CCN2C(=O)c1ccc(F)cc1)c1cc2ccccc2[nH]1 -2.18%
Cc1cccc(C)c1OCCn1c(C2CC(=O)N(c3cccc(Cl)c3)C2)nc2ccccc21 (stereo unspecified) -1.88%
O=C(Cc1ccc(Cl)cc1)Nc1ccc2nn(-c3ccc(Cl)cc3)nc2c1 1.57%
c1ccc(CNc2nc3c(-c4ccccc4)nnn3c3ccccc23)cc1 -9.94%
O=C(Nc1ccccc1-c1cn2c(CN3CCNCC3)csc2n1)c1cnc2ccccc2n1 -15.3%
CCOc1ccc(S(=O)(=O)NCCc2sc3nc(-c4ccc(F)cc4)nn3c2C)cc1 -1.48%
CCOc1ccc(OCC)c(NS(=O)(=O)c2cc(-c3cc(C)no3)ccc2C)c1 -5.03%
NC(N)=NC(N)=NCCc1ccccc1 4.29%
CC(C)Sc1oc(-c2cccs2)nc1S(=O)(=O)c1ccc(Cl)cc1 1.9%
CC(=O)c1ccc(NC(=O)CSc2nnc3ccc(-c4ccc(Cl)cc4)nn23)cc1 -4.7%
CCOc1ccc(NC(=O)NCc2c(-n3cccc3)sc3c2CCCC3)cc1 -10.3%
Cc1oc2ncnc(N3CCCCC3)c2c1C(=O)N1CCN(c2cccc(C(F)(F)F)c2)CC1 1.59%
CCC(=O)Oc1ccc(/C=C(\C#N)c2nc3ccccc3[nH]2)cc1OC 2.23%
COc1ccc(-c2cc(C(F)(F)F)nc(S(=O)(=O)CCCC(=O)Nc3cccc(O)c3)n2)cc1OC -20.6%
CCc1ccc(NCc2cc3cc4c(cc3n(CC(=O)Nc3ccc(C)cc3)c2=O)OCO4)cc1 -8.88%
CCOc1ccccc1NC(=O)C(=O)NCCc1sc(-c2cccc(F)c2)nc1C 9.87%
CCCCn1c(SCC(=O)NCCCOC)nc2c(sc3ccccc32)c1=O -7.31%
Cc1cc(C)c(NC(=O)CSc2nc3nc(C)cc(C)n3n2)c(C)c1 -8.01%
COc1ccccc1N1CCN(c2ncccc2-c2nc(-c3ccc(Cl)cc3)no2)CC1 2.55%
C[C@H](CCC(=O)O)[C@H]1CCC2C3C[C@H](O)[C@@H]4C[C@H](O)CC[C@]4(C)C3CC[C@@]21C (stereo partly specified) 20.5%
CCCCOc1cccc(C2c3c(oc4ccccc4c3=O)C(=O)N2c2ccccn2)c1 (stereo unspecified) 0.65%
O=C(CSc1nc(-c2ccc(F)cc2)[nH]c1-c1ccccc1)NCC1CCCO1 (stereo unspecified) -7%
CCCC1=Nc2cc(C(=O)NC(C)c3ccccc3)ccc2Sc2ccc(C)cc21 (stereo unspecified) 2.24%
O=C(CCN1N=C(c2ccccc2)CCC1=O)NCCc1ccc(Cl)cc1 -8.07%
O=c1c2c(-c3ccccc3)ccnc2[nH]n1-c1ccccc1 7.44%
Cc1cc(C(F)F)n2nc(C(=O)Nc3c(C)cccc3C)nc2n1 5.3%
Cc1ccc(NC(=O)/C=C/c2ccc(C)o2)c(C)c1 3.58%
CCc1ccc(NC(=O)CN(c2ccc(OC)cc2)S(=O)(=O)c2c(C)[nH]c(=O)[nH]c2=O)cc1 -5.2%
COc1ccc(-n2c(CC3C(=O)N(C)c4ccc(C)cc43)nc3ccccc3c2=O)cc1 (stereo unspecified) 2.39%
CCOc1ccc(C(=O)c2cn(Cc3ccccc3OC)c3ccc(F)cc3c2=O)cc1 2.13%
COc1ccc(S(=O)(=O)N2CCC(Oc3ccc(-n4cnnn4)cc3)CC2)cc1OC -3.31%
CC(=O)Nc1ccc(NC(=O)CSc2nc3ccccc3nc2N2CCOCC2)cc1 -1.78%
CCOc1ccc(N(CC(=O)NCc2ccccc2Cl)S(=O)(=O)c2c(C)[nH]c(=O)[nH]c2=O)cc1 -9.97%
O=C(NCc1ccco1)c1ccc2c(c1)N(Cc1cccc(Cl)c1)C(=O)c1ccccc1S2(=O)=O 4.08%
COc1ccc(-c2noc(CNC(=O)c3ccco3)n2)cc1 -11.6%
Cc1nn(-c2ccccc2)c2nc(C3CC3)cc(C(=O)Nc3ccccc3F)c12 -47.6%
Cc1ccccc1C(=O)Nc1nnc(S(=O)(=O)N2c3ccccc3CC2C)s1 (stereo unspecified) 0.325%
CN1C(=O)c2ccccc2Sc2ccc(NC(=O)COc3ccc(F)cc3)cc21 -21.8%
Fc1ccc(CN2CCc3nc(Nc4ccccc4)ncc3C2)cc1F 1.14%
COc1ccc(CCNc2ncnc3c2cnn3-c2ccc(C)cc2)cc1 2.3%
COc1ccc(C(c2c(O)cc(C)n(Cc3ccco3)c2=O)N2CCCCC2)cc1OC (stereo unspecified) -3.05%
CC1CCN(C(=O)CSc2nc(-c3ccccc3)no2)CC1 -14.8%
CCOc1cccc(CC(=O)N2CCc3c([nH]c4ccccc34)C2c2ccc(Cl)cc2)c1OCC (stereo unspecified) 0.767%
COc1cc(Cl)c(C)cc1NC(=O)c1ccc2c(Cl)c3c(nc2c1)CCC3 -14.9%
O=C(Cn1cc(SCc2cccc(Cl)c2)c2ccccc21)N1CCCCCC1 -2.99%
CCc1ccc(Oc2c(C(F)(F)F)oc3c(CN4CCN(C)CC4)c(O)ccc3c2=O)cc1 -0.836%
CCOc1ccccc1NC(=O)c1c(NC(=O)c2ccccc2)sc2c1CCCC2 18.5%
COc1ccc(-n2ccn(CC(=O)NCCc3ccccc3)c(=O)c2=O)cc1OC 8.05%
COc1ccccc1CN(Cc1ccco1)c1cnc(S(C)(=O)=O)nc1C(=O)Nc1cc(C)ccc1C 2.48%
COc1cccc(CNC(=O)Cn2ncc3c4ccccc4n(Cc4ccccc4)c3c2=O)c1 -16.9%
O=C(NCCc1csc2nc(-c3ccc(F)cc3)nn12)c1cccc(C(F)(F)F)c1 1.19%
CC(C)(C)c1ccc(-c2nc3cc(NC(=O)c4cccc(Br)c4)ccc3o2)cc1 5.81%
COc1ccc(Cn2c(SCc3ccc(C(=O)NC4CCCC4)cc3)nc3cccnc32)cc1 3.45%

outcome, inactive:
Nc1c(-c2nc(-c3cccs3)no2)nnn1-c1ccc(Cl)cc1
CSc1ncc2c(n1)-c1ccccc1N(Cc1ccc(Cl)cc1)S2(=O)=O
Cc1ccc(-n2ncc(C(=O)NCc3ccccc3C)c2-n2cccc2)cc1
COc1cccc(NC(=O)C2CCCN(S(=O)(=O)c3c(C)nn(C)c3C)C2)c1 (stereo unspecified)
COc1ccc(SCc2cc(=O)c3cc(Cl)ccc3[nH]2)cc1
CCOc1ccc(CCNC(=O)c2cn(CC)c3ccc(S(=O)(=O)N4CCc5ccccc5C4)cc3c2=O)cc1OCC
CCn1c2ccccc2c2cc(CN3CCN(Cc4ccccc4F)CC3)ccc21
Cc1ccc(CNC(=O)c2ccc(Cn3c(=O)c4ccccc4n(CC(=O)Nc4ccc(C)cc4C)c3=O)cc2)cc1
CCc1ccccc1N1C(=O)N(Cc2ccc(C#N)cc2)c2ccccc2S1(=O)=O
Cc1ccc(Nc2c(-c3cccs3)nc3nc(C)cc(C)n23)cc1
CCOc1ccc(NC(=O)C2CCCN(S(=O)(=O)c3cccc4nonc34)C2)cc1 (stereo unspecified)
CCn1c(=O)c2sccc2n2c(CCCC(=O)N3CCN(c4cc(Cl)ccc4C)CC3)nnc12
CCN(CC)c1cc(C)c2cc(NC(=O)c3ccccc3OC)ccc2n1
Cc1cc(C)c(NC(=O)CSc2ccc(-c3sc(-c4ccccc4)nc3C)nn2)c(C)c1
CCc1ccc(C(=O)c2cn(CC(=O)Nc3ccc(OC)c(OC)c3)c3ccc(C)cc3c2=O)cc1
COc1ccc(-c2nnc(SCC(=O)NCc3ccc(C)cc3)nc2-c2ccc(OC)c(OC)c2)cc1OC
CCOC(=O)c1cnc2c(ccc3ccccc32)c1Nc1cccc(OC)c1
O=C(NCCc1ccccc1)c1cc(S(=O)(=O)N2CCCCC2)c[nH]1
Cc1ccc(CN(Cc2ccco2)C(=O)COc2cc(C)c(Cl)c(C)c2)cc1
COc1ccc(CCNC(=O)c2ccc3c(c2)N(Cc2ccccc2F)C(=O)c2ccccc2S3(=O)=O)cc1OC
Cc1nn(C(=O)c2c(F)cccc2F)c(C)c1S(=O)(=O)N1CCOCC1
Cc1cccc(N2CCN(C(=O)c3cc4c(=O)oc5ccccc5c4s3)CC2)c1C
Oc1c(C(c2ccccc2Cl)N2CCCC2)sc2nc(-c3ccco3)nn12 (stereo unspecified)
Cc1ccc(CNC(=O)CSc2cc(C)[nH]c(=O)n2)cc1
COc1ccc(C2C(=O)N(C3CCCCCC3)CC(=O)N2Cc2ccc(C)cc2)cc1OC (stereo unspecified)
COc1cc(C(=O)N2CCC(c3nc4ccccc4o3)CC2)cc(OC)c1OC
Cc1c(NS(=O)(=O)c2ccccc2)cc(C(C)C)c(O)c1S(=O)(=O)c1ccc(Cl)cc1
CCOc1ccccc1CNC(=O)c1cnc2sc(N3CCCCCC3)nn2c1=O
COc1cccc(C(=O)NCc2nc(-c3ccccc3)no2)c1OC
CCc1ccc(S(=O)(=O)NCCc2csc3nc(-c4ccccc4)nn23)s1
